Results reported in PubChem BioAssay AID463173 (ICCB-Longwood Screening Facility, Harvard Medical School, 2010).
Screen size: about 52,000 compounds; about 1,700 (3.3%) were called active. Cut-off read from the data, not from the text of the source: active = survival mostly below about 52% (no sharp cut-off); inactive = mostly above about 56%. The list shows a part of the results.

What follows are compounds tested on Wild type (assay: growth inhibition of S. aureus wild type versus tarO mutant, primary screen, teichoic acid synthesis inhibitors, RN4220, OD600 (AID 463173)). Details: S. aureus RN4220 wild type/DeltatarO growth, OD600, 18 h, stronger effect = lower value, screened at 18.75 µg/mL (by protocol).
For COc1cc(OC)c(NC(=O)c2ccc3nc(C(C)C)oc3c2)cc1Cl, the survival was inactive: 88%.
With Cc1ccc(C(=O)Nc2cccc(C(=O)OCc3cc(=O)n4c5c(sc4n3)CCCC5)c2)cc1 the survival was inactive: 79%.
With Cc1ccc(NC(=O)C2CCCN(S(=O)(=O)c3cccc4cccnc34)C2)cc1Cl (centres undefined) the survival was inactive: 87%.
In the case of CC1=C(C#N)C(=O)NC(=O)/C1=C\c1ccc(-c2ccc(S(N)(=O)=O)cc2)o1, the survival is reported as inactive: 116%.
COc1ccc(N2CCN(S(=O)(=O)c3c(C)nc4scc(C)n4c3=O)CC2)cc1 was tested, and the survival was inactive: 78%.
In the case of Cc1cc(C)c(NC(=O)CSc2nc(C)cc(C)c2C#N)c(C)c1, the survival is reported as inactive: 108%.
With Cc1ccc(C)c(NC(=O)N2CC=C(c3c[nH]c4ccccc34)CC2)c1 the survival was inactive: 71%.
For O=C(CN1Cc2ccccc2C1=O)Nc1cc(F)ccc1F, the survival was inactive: 55%.
O=C(/C(=N/O)n1cncn1)c1ccc(Cl)cc1Cl was tested, and the survival was inactive: 99%.
With Cc1cccc(N(C)C(=O)C(Cc2ccccc2)NS(=O)(=O)c2cccc3nsnc23)c1 (centres undefined) the survival was inactive: 73%.
For COc1ccc(Nc2ccc3cc(S(=O)(=O)N4CCCC4)ccc3n2)cc1Cl, the survival was inactive: 75%.
In the case of Clc1c(-c2nnc(-c3ccc(N4CCOCC4)cc3)o2)sc2ccccc12, the survival is reported as inactive: 103%.
With O=C(O)/C=C/c1ccc(S(=O)(=O)N(CCO)CCO)cc1 the survival was inactive: 91%.
COc1ccccc1OCC(=O)N(Cc1ccc(N(C)C)cc1)CC1CCCO1 (centres undefined) was tested, and the survival was inactive: 96%.
In the case of CCOc1ccc(-n2c(SCC(=O)Nc3ccccc3OC)nc3c(oc4ccccc43)c2=O)cc1, the survival is reported as inactive: 84%.
With CC(=O)c1ccc(NC(=O)C2CCN(S(=O)(=O)c3ccc4c(c3)CCCN4C(=O)C3CCC3)CC2)cc1 the survival was inactive: 74%.
In the case of Cc1ccc2oc(=O)c3cnn(CC(=O)N(C)c4ccc(F)cc4)c3c2c1, the survival is reported as inactive: 90%.
In the case of CCc1ccccc1NC(=O)CN(Cc1ccccc1)S(=O)(=O)c1ccc2nc(C)sc2c1, the survival is reported as inactive: 74%.
For COc1ccc(N2CCN(C(=O)Cc3c(C(=O)O)c(C)cn3C)CC2)cc1, the survival was active: 14%.
For CCOC(=O)c1c(NC(=O)CCCOc2ccc(C(C)(C)C)cc2)sc2c1CCC2, the survival was active: 7%.
In the case of CC(C)=CC(=O)Nc1nnc(-c2ccccc2)s1, the survival is reported as inactive: 106%.
COc1ccc(-n2nc3ccc(NC(=O)COc4ccc(C)c(C)c4)cc3n2)cc1 was tested, and the survival was inactive: 70%.
CCC(OC(=O)C1=Cc2ccccc2OC1)C(=O)NC1CCCC1 (centres undefined) was tested, and the survival was inactive: 112%.
With CCCSc1nc(=O)c2c(n1C)NC(=O)CC2c1cccc(F)c1F (centres undefined) the survival was inactive: 82%.
In the case of O=C(Cn1c(-c2cccs2)cc2cc(Cl)ccc21)NCc1ccccc1, the survival is reported as inactive: 69%.
For CCc1cc(C(=O)Nc2cnn(Cc3ccc(F)cc3)c2)no1, the survival was inactive: 70%.
For Cc1cccc(NC(=O)Cn2cc(S(=O)(=O)c3ccc(F)cc3)c(=O)c3cc4c(cc32)OCO4)c1, the survival was inactive: 123%.
In the case of CCC(=O)N1CCc2cc(Br)cc(S(=O)(=O)NCCc3ccccc3Cl)c21, the survival is reported as inactive: 73%.
Cc1ccc(-c2c(C(=O)N3CCN(c4cccc(C)c4C)CC3)oc(=O)c3ccccc23)cc1 was tested, and the survival was inactive: 86%.
With CC(=O)c1cccc(NC(=O)c2cnn(-c3cccc(C)c3)c2-n2cccc2)c1 the survival was inactive: 124%.
In the case of COc1ccc(OC)c(CCNC(=O)c2cc3c(-c4ccccc4F)nn(C)c3s2)c1, the survival is reported as inactive: 88%.
CC(C)(C)NC(=O)C1CC(=O)OC1(C)C (centres undefined) was tested, and the survival was inactive: 107%.
COc1ccc(C)cc1NS(=O)(=O)c1ccc2c(c1)[C@H]1C=CC[C@H]1[C@@H](c1cccc(Cl)c1)N2 was tested, and the survival was inactive: 97%.
For Cc1cc(C)cc(NC(=O)CSCn2nnc3c(=O)[nH]c(Cc4ccc(F)cc4)nc32)c1, the survival was inactive: 86%.
In the case of COc1ccc(CCNC(=O)CCc2c(C)nc3cc(-c4ccccc4)nn3c2C)cc1OC, the survival is reported as inactive: 93%.
In the case of CCOc1cc(C(=O)Nc2ccc3oc(-c4ccc(CC)cc4)nc3c2)cc(OCC)c1OCC, the survival is reported as inactive: 71%.
For COc1ccccc1CCNC(=O)CCn1c(=O)c2cccn2c2ccc(F)cc21, the survival was inactive: 49%.
In the case of Cc1noc(/C=C/c2ccco2)c1S(=O)(=O)N1CCC(C(=O)Nc2ccc(F)cc2F)CC1, the survival is reported as inactive: 71%.
CCOC(=O)c1cccc(NC(=O)Cn2c(=O)nc(-c3ccccc3)c3ccccc32)c1 was tested, and the survival was inactive: 68%.
O=C(Nc1cc(C(F)(F)F)ccc1Cl)c1cc(S(=O)(=O)NCc2ccccc2)ccc1F was tested, and the survival was active: 14%.
With Cc1cccc(OCc2ccc(-c3nc(C#N)c(N4CCC(C(N)=O)CC4)o3)o2)c1 the survival was inactive: 102%.
With CCc1cc2c(cc3c(=O)n(CCCC(=O)NCc4ccccc4Cl)nc(CC)n32)s1 the survival was inactive: 73%.
In the case of CCCCN(Cc1ccccc1)C(=O)CN(C)S(=O)(=O)c1ccc2c(c1)c(=O)n(C)c(=O)n2C, the survival is reported as inactive: 130%.
For Cc1ccc(OCC(=O)Nc2ccc3nc(SCc4ccccc4)sc3c2)cc1, the survival was inactive: 93%.
CCOC(=O)c1cccc(NC(=O)CC2C(=O)N(c3ccc(F)cc3)C(=O)N2C(C)C)c1 (centres undefined) was tested, and the survival was inactive: 69%.
COc1ccc(NC(=O)C(Cc2ccccc2)NS(=O)(=O)c2ccc(Br)s2)cc1OC (centres undefined) was tested, and the survival was inactive: 66%.
In the case of COCCCNC(=O)CC(c1cc(OC)c(OC)c(OC)c1)N1Cc2ccccc2C1=O (centres undefined), the survival is reported as inactive: 72%.
For Cc1ccc(-c2nc3ncccc3o2)cc1NC(=O)COc1ccc(C(C)C)cc1, the survival was active: 11%.
Cc1cc(C)c2nc(-c3ccco3)cc(C(=O)O)c2c1 was tested, and the survival was inactive: 106%.
For Cc1ccc(C)n1CCC(=O)O, the survival was inactive: 115%.
For COc1ccc(CCNC(=O)c2cnc3sc(N4CCCC4)nn3c2=O)cc1OC, the survival was inactive: 74%.
With CN(C(=O)c1cc2c(s1)-c1ccc(Cl)cc1SC2)c1cccc(C(F)(F)F)c1 the survival was inactive: 54%.
In the case of O=C(CN1C(=O)COc2ccc(S(=O)(=O)N3CCCCC3)cc21)NCc1ccc(Cl)cc1, the survival is reported as inactive: 65%.
For Cc1ccc(CNC(=O)c2nnn(CC(=O)Nc3cc(C)ccc3C)c2N)cc1, the survival was inactive: 75%.
For CSCCC(NS(=O)(=O)c1ccc2c(c1)oc(=O)n2C)C(=O)N1CCN(c2cccc(Cl)c2)CC1 (centres undefined), the survival was inactive: 68%.
In the case of CCOc1ccc(-c2nnc(-c3ccc(Br)cc3)o2)cc1OCC, the survival is reported as inactive: 107%.
In the case of Cc1ccc(CN(Cc2ccco2)C(=O)COc2ccc(Cl)cc2)o1, the survival is reported as inactive: 84%.
In the case of CCOc1ccc(-c2cc(-c3nc(-c4cc(OC)c(OC)c(OC)c4)no3)[nH]n2)cc1, the survival is reported as inactive: 123%.
For COc1cc(NC(=O)c2cc3ccccn3n2)cc(OC)c1OC, the survival was inactive: 66%.
For COc1ccccc1NC(=O)CC(C)(C)C, the survival was inactive: 108%.
With CCc1ccccc1NS(=O)(=O)c1ccc(NC(=O)N2CCCC2)cc1 the survival was inactive: 75%.
For c1ccc(Nc2nc(-c3ccncc3)cs2)cc1, the survival was inactive: 123%.
In the case of Fc1ccc(-c2noc3ncnc(NCC4CCN(Cc5ccc(Cl)cc5)CC4)c23)cc1, the survival is reported as inactive: 81%.
In the case of CC(=O)c1ccc(NC(=O)c2ccc(-c3nc(CSc4ccccc4)c(C)o3)cc2)cc1, the survival is reported as inactive: 55%.
For CN1C(=O)CC(C(=O)O)SC1=Nc1cccc(C(F)(F)F)c1 (centres undefined), the survival was inactive: 116%.
In the case of COc1cc(NC(=O)c2cc(C)nc3c2c(C)nn3-c2ccccc2Cl)cc(OC)c1, the survival is reported as inactive: 76%.
For CCn1nnnc1SCC(=O)N1c2ccccc2CCc2ccccc21, the survival was inactive: 107%.
CCn1c(SCC(=O)Nc2cccc(Cl)c2C)nnc1C1CC1 was tested, and the survival was inactive: 99%.
For Cc1ccc2cc3c(N)nn(C(=O)c4cccc(F)c4)c3nc2c1, the survival was inactive: 81%.
For Cc1cc(C)cc(NC(=O)Cn2nnc(-c3nc(-c4ccncc4)no3)c2N)c1, the survival was inactive: 71%.
For Cc1cc2c(cc3c(SCc4nc(-c5ccccc5)oc4C)nnc(C)n32)o1, the survival was inactive: 85%.
For Cc1ccc(N2CCN(S(=O)(=O)c3ccc(F)c(C(=O)Nc4ccc(Cl)cc4Cl)c3)CC2C)cc1 (centres undefined), the survival was active: -6%.
For COc1cc(C(c2nnnn2Cc2ccco2)N2CCN(C3CCCC3)CC2)cc(OC)c1OC (centres undefined), the survival was inactive: 107%.
For O=C(Nc1ccccc1)C1CCCN1C1CCCCC1 (centres undefined), the survival was inactive: 108%.
In the case of CCn1ccc2c(OCC(=O)Nc3ccccc3C)cccc2c1=O, the survival is reported as active: 0%.
In the case of COc1ccc(N2CCN(C(=O)c3cccc(NC(=O)c4nsc5ccccc45)c3)CC2)cc1, the survival is reported as inactive: 131%.
With CCOC(=O)c1ccc(NC(=O)Nc2cc3c(cc2N2CCCC2)n(C)c(=O)n3C)cc1 the survival was inactive: 84%.
In the case of CCC(=O)Nc1cccc(NC(=O)c2cccs2)c1, the survival is reported as inactive: 113%.
For O=C(Nc1ccc2nc(SCC(=O)N3CCCc4ccccc43)sc2c1)c1ccccc1, the survival was inactive: 86%.
For COc1cccc(CNC(=O)c2cc(C)nc3c2c(C)nn3-c2cccc(F)c2)c1, the survival was inactive: 131%.
For COc1ccc(S(=O)(=O)Nc2ccc3c(c2)CCCN3S(=O)(=O)c2ccc(C)cc2)cc1F, the survival was inactive: 71%.
With Nc1c(C(=O)Nc2ccc(F)c(F)c2)sc2nc(-c3ccncc3)ccc12 the survival was inactive: 96%.
COC(=O)c1cc(NC(=O)c2nn(C)c3c2COc2ccccc2-3)cc(C(=O)OC)c1 was tested, and the survival was inactive: 86%.
In the case of O=C(Cc1ccccc1)NC1CCN(S(=O)(=O)c2cccc(F)c2)CC1, the survival is reported as inactive: 124%.
For Cc1ccc(C(CC(=O)O)C2CCOC(C)(C)C2)cc1 (centres undefined), the survival was inactive: 122%.
For COc1ccccc1NC(=O)C1=C(C)Nc2nc(SCc3ccccc3F)nn2C1c1cccs1 (centres undefined), the survival was inactive: 73%.
For O=C(COCc1cc(-c2ccc3c(c2)OCO3)on1)N1CCN(c2ccccc2)CC1, the survival was inactive: 99%.
In the case of CCC(CC)C(=O)Nc1nc2c(s1)CC(C)CC2 (centres undefined), the survival is reported as inactive: 98%.
COc1ccc(-n2nnnc2C2CCN(S(=O)(=O)c3ccc(C(C)(C)C)cc3)CC2)cc1 was tested, and the survival was inactive: 87%.
